Patent publication US20240026343A1, “METHOD FOR SCREENING DIMERIZED CYCLIC PEPTIDE” (AJINOMOTO CO., INC., priority 2021, published 2024)

Test system: HGF-Erk-SRE pathway
Test: SRE luciferase reporter assay of aMD4dY-leucine zipper fusion dimers (Example 2)
Format: cell-based
Details: HEK293E cells with SRE reporter; cell-free expression reaction solution at 25- to 625-fold dilution; overnight stimulation; HGF 0 to 100 ng/mL as comparator; FIGS. 8-13
Procedure: The dimer of each aMD4dY-leucine zipper fusion was evaluated by luciferase assay. To 25 μL of Opti-MEM medium (Thermo Fisher Scientific), 0.6 μL of Attractene Transfection Reagent (QIAGEN) was added and incubated at room temperature for 5 minutes. To the above mixed solution, a mixed solution of 25 μL of Opti-MEM and 1 μL of SRE reporter vector (QIAGEN) was added and incubated at room temperature for 20 minutes. This mixed solution was added to a 96-well plate, HEK293E cells were seeded thereon at 40,000 cells/well, and incubated overnight at 37° C. in a 5% CO2 incubator. […]
Dual-Luciferase Reporter Assay System (Promega) was used for signal intensity detection. […] Activation of the HGF-Erk-SRE pathway was quantified by detecting Firefly luciferase luminescence from cell lysates with a plate reader. Subsequently, 50 μL of Glo & Stop reagent solution was added, and after 10 minutes, luminescence of Renilla luciferase, an internal standard, was detected to quantify the cell count. The signal activity of each sample was quantified as SRE activity=(luminescence intensity of Firefly luciferase)/(luminescence intensity of Renilla luciferase). […]

B1: aMD4dY-PA8-GCN4-cys: aMD4dY-GCN4 leucine zipper fusion, SEQ ID NO: 48 (protein)
chain: MAETCRQFNRRTHEVWNLDCGAAPAAPAPGRMKQLEDKVEELLSKNYHLENEVARLKKLVGERGGCGG
modifications: aMD4dY-PA8-GCN4-cys; DISULFID 5..20 Disulfide bridge between Cys-5 and Cys-20
relative reporter activity (SRE activity): found to have signal activation ability
